# Measured values as given in the supplement of paper PMC11417369.
# Some of the results follow.
# System: PfAP2-HC AP2 domain (GST-tagged)
# Test: gcPBM binding intensity (ln(normalized median fluorescence intensity)); higher = stronger DNA binding
# Method in brief: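 Alexa488 anti-GST antibody, scanned at 488 nm, detected GST-tagged P. falciparum DNA-binding domains that had been expressed in E. coli and incubated for 1 h on an Agilent 4 × 180k array. The array carried primer-extended double-stranded 36-bp intergenic genomic probes and negative controls. Binding intensity is the highest Masliner-normalised natural-log median intensity across replicate spots of either orientation of each probe.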
row,Sequence,gcPBM binding intensity (ln)
1,TATATTTATTATAATTGTACATAAAATAAACTAAGA [XGTACX_site4318],9.46
2,AAATAATTAAACATATGTACATATTATATATATATA [XGTACX_site6774],9.68
3,TTTTAAAGTTGTGAGCTTCATTTTTATTTATATGTA [CACACA_negctrl_site1505],9.59
4,TTACAATTAATAAAGTGTACTTAACTATTATATATA [XGTACX_site481],9.6
5,TTGATCTATAATAATACACACTTACATAATTAATTA [CACACA_site6273],9.62
6,ATATATATATATGTCTGTACATAAAAAATAATAAAT [XGTACX_site3122],9.68
7,ATATTCCTACATACAACACACGACGTTCTCATAAGA [CACACA_site231],9.75
8,GGAAAATGAAAAACAAAAAAAAAAAAAAAAAAATGA [TGCATGCA_negctrl_site432],9.32
9,AAAAATAGACAAAAGAGTACAAGAAAAAAAGGGTTC [XGTACX_site7843],9.89
10,ACATCTGTTATTTGTGGTACTAAAAAAATATATAGT [XGTACX_site8322],9.51
11,TCTTTTTAGATATATACACACCGTGTCTACCTATAC [CACACA_site7551],10.3
12,ATAATATAAATACAAACACACAATTGTGTCCACATT [CACACA_site6920],10.3
13,ATCATATTTATGTTGGTGCATTATGCATGGATTTTA [GTGCAC_site9795],9.6
14,TTTTTAAATATAAACAAAAAAAAAAAATATATCAAT [XGTACX_negctrl_site328],9.43
15,ATTTTTATTTTTATTTGTACTTATATATTCTTAAGC [XGTACX_site4122],9.83
16,TAAAAAAATTTAACATGTACAAATATTGAAAAGGAC [XGTACX_site7608],9.87
17,ATTAAAAAAGAATATACACACCAAAACTGTTTGTTA [CACACA_site4687],9.68
18,TACAATTCGTAATACACACACATATATATATATATT [CACACA_site3751],9.97
19,GAAGAATAAATATGCACACATGCATATATTTTTACA [CACACA_site3459],9.69

row,Sequence,gcPBM binding intensity (ln)
1,ATATATTTTTACCATACACACATATAACAAATATAT [CACACA_site7706],9.8
2,TTTATTATCTTATTCACACACATATATATATATATA [CACACA_site2869],10.1
3,AGAAAAAAAAAAAAAAAAAAAAAATTGAATATATAT [TGCATGCA_negctrl_site55],9.35
4,TGTTTTTATAATATTAGTACATAATATACATAATTC [XGTACX_site2787],9.46
5,AATAAATTAATTTTGGGTACATATATATATATATAT [XGTACX_site3807],9.91
6,AAATATATATAAATGAGTACTTATGGTAACATATAT [XGTACX_site6362],9.78
7,AGAGCATAATAAAACACACACATACATACCTATATA [CACACA_site6566],10.9
8,AAAAAATATTGAAGTACACACATTATGAACTTTTTT [CACACA_site1733],9.81
9,ATAAATAATTATAATTGTACACATATATATATATAC [XGTACX_site3998],9.72
10,TTCCACATTTTACAGACACACACAATTTATATTACG [CACACA_site8572],10.1
11,TATATATATATATATACATGCATATATATAATATAT [TGCATGCA_site763],9.45
12,GTAAGTTGTGCATTCACACACATATATATATATATA [CACACA_site3303],9.82
13,TTTTGTTTCTATATAAGATGGAAATATAAACTTGTA [CACACA_negctrl_site82],9.4
14,TTAAGATCCTAAAAAACACACAATTGTGAATAATAA [CACACA_site3872],9.79
15,TTATTAAAACAAAATGTACACACATATAATTTAATG [CACACA_site8193],9.67
16,TTTTTCTTTCTTTCTTTTTTAATATTACAAATGTAT [XGTACX_negctrl_site267],9.63
17,TTCAATGCATGTCCATGTACATATAAAAAAAAATAC [XGTACX_site1597],9.54
18,TGTTGGCAGGTGAATGCATGCATATAAGTCTATCTG [TGCATGCA_site781],9.52
19,CACCCTTTACACAAGGTGCATACTTTATTATATTTT [GTGCAC_site9778],9.86

row,Sequence,gcPBM binding intensity (ln)
1,AAAGTAGAATATCCCCTACACACCCAAATAATTTAC [CACACA_site1255],10.5
2,AATATTTTAATGCACACACACAAAAAAAAAAAAAAA [CACACA_site7374],9.84
3,AATCCTTTACGACACACACACAAAAAAAAAAAAAAA [CACACA_site6449],10.3
4,TATATATTTTATTTATGTACGAAAATAAATTAAATT [XGTACX_site3628],9.36
5,TTAAAAAAATTAATATGTACATATATTTATATATAT [XGTACX_site5317],9.54
6,TATTAAAAAGAGGTGACACACACATATAAATCTAAA [CACACA_site9243],10
7,AACCACATACCTATAACACACATATACAATATAGAT [CACACA_site7023],9.98
8,TCCACAAAGCATGTAACACACAACATATAAGACATA [CACACA_site972],9.91
9,ACATCATAGAAAAATTGATATATATATATATATATA [CACACA_negctrl_site130],9.47
10,ATAACTTATTTTTAAAGTACATTATTATATATATAT [XGTACX_site1620],9.7
11,ATTGTAATAAATTGTAGTACATGTAAGGTTTTATTT [XGTACX_site1005],10
12,AATAAAAATATATCCACACACATATATAAATATGTA [CACACA_site6415],10
13,TTAAGAATATTTTCATGTACTCATTTTTTTTGTTAT [XGTACX_site1814],9.73
14,ATTACATATGTGAGTTGTACTATAAATATATAATAT [XGTACX_site3718],9.66
15,TATTATATATATAGGTGTACGCATTTGTCCTTTATA [XGTACX_site1385],9.75
16,AAACTTATGTTTACATGTACAGAACTTTATATTATG [XGTACX_site4843],9.7
17,TCGAACATTAACATAACACACATATAGATTTATATA [CACACA_site7380],9.87
18,TTATTCTTTAACTAAAATTATATATATATATTATAC [CACACA_negctrl_site1597],9.67
